# Measurements as given in PubChem BioAssay AID1347165 (National Center for Advancing Translational Sciences (NCATS), 2019).
# In all, about 220,000 compounds went through this assay and about 5,700 (2.6%) were called active. Inconclusive means that the source gave no clear call. Such entries were picked first, then a sample of the others. Calls follow the shape of the dose curve; as a rule, active = well fitted inhibition curve with a large enough effect; inconclusive = small, poorly fitted or top-dose-only effect; inactive = no such curve, though single readings can be large or run the other way. Potencies beside an inconclusive call are fits to weak or partial responses and may not hold up.
# Target: Lysine-specific demethylase 5B (Homo sapiens) (UniProt Q9UGL1)
# Assay: Primary screen for KDM5B Histone Demethylases FDH-coupled qHTS; also: nearly all actives have a fitted effect of over 70% in size; as to activity change, negative = inhibition: 0% is about no effect
# Conditions: FDH-coupled NADH fluorescence (FDH is formaldehyde dehydrogenase); activity change, negative = inhibition: at 57.7 µM (top of the series) unless noted
# Method in brief: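 qHTS format, multiple compound concentrations. Buffer 50 mM HEPES pH 7.5/0.01% Tween-20; 200 nM KDM5BΔAP final; 10 min compound preincubation; substrate-mix levels 12.5 µM peptide, 25 µM α-KG, 0.25 mM NAD⁺; 30 min RT; ΔRFU.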
# Potency is read from the fitted curve at half-maximal effect; tags tell the direction and shape of the fitted curve.
# Chain of UniProt Q9UGL1 (Q9UGL1 whole entry, looked up): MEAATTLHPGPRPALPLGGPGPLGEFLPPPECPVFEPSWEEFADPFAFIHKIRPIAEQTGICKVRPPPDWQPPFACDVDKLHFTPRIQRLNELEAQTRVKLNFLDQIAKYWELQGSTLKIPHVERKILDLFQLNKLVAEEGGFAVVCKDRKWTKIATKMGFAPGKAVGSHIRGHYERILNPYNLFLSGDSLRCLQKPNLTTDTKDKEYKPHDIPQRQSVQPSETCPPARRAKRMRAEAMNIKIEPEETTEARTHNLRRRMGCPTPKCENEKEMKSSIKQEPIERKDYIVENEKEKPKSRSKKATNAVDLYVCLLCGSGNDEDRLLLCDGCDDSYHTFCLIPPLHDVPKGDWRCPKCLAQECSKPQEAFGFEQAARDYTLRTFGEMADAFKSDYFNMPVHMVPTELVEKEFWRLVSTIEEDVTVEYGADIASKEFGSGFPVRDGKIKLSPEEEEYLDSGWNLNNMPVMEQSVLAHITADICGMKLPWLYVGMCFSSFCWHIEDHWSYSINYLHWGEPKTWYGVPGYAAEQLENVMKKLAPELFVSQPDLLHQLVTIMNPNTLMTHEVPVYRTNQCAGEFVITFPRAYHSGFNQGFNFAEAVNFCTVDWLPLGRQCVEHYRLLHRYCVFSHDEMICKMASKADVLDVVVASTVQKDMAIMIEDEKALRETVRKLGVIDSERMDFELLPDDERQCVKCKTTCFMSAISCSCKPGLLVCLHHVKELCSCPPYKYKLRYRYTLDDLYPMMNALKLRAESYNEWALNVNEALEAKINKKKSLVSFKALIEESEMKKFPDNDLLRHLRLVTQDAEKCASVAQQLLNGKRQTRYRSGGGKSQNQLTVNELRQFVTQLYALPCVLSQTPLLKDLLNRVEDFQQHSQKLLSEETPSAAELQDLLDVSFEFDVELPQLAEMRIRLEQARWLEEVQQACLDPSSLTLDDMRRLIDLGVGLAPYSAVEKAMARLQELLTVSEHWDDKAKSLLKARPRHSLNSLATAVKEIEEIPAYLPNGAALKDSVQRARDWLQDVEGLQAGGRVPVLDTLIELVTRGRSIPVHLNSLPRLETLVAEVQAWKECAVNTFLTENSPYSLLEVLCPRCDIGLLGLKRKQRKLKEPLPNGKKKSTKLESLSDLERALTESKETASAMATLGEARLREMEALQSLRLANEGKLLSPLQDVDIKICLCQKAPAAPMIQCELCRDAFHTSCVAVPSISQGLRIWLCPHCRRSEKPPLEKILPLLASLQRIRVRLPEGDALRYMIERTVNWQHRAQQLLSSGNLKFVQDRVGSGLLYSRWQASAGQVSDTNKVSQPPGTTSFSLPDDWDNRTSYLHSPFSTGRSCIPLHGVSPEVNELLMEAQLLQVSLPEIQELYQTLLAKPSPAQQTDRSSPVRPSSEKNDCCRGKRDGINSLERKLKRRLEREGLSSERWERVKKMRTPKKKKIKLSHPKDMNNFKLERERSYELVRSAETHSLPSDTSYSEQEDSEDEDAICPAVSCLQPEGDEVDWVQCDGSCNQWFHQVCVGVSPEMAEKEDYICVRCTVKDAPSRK
Compound,Potency,"activity change, negative = inhibition"
Cc1noc2c(-c3cnn(C)c3)cc(-c3cccnc3)nc12,"inconclusive: 39.8 µM [inhibitor, single point]",–
CC(C)(C)C1CCc2c(sc(NC(=O)c3cccc(Cl)c3)c2C(=O)NCc2ccco2)C1 (stereo unspecified),"inconclusive: 17.8 µM [inhibitor, partial curve, poor fit]",–
O=C(c1cccs1)N1CCC(Nc2cccnc2)C1 (stereo unspecified),"inconclusive: 28.2 µM [inhibitor, partial curve, poor fit]",–
CC(C)OCCCn1c(=O)c2ccccc2n2c(-c3ccccc3)nnc12,"inconclusive: 22.4 µM [inhibitor, single point]",–
Cc1ccccc1C(NC(C)c1ccccc1)c1ccccc1 (stereo unspecified),inactive,–
Cn1cccc1C(=O)NCc1ccc(Cl)cc1,inactive,–
COc1ccc(NC(=O)N2Cc3[nH]cnc3C[C@H]2c2nc(-c3ccccc3)no2)cc1,"inconclusive: 31.6 µM [inhibitor, single point]",–
Cc1cccc(CNC(=O)c2cc3cc(S(=O)(=O)N4CCCCC4)ccc3n2C)c1,"inconclusive: 31.6 µM [inhibitor, partial curve, poor fit]",–
Cc1ccc(CCNC(=O)Cn2c(-c3cccs3)cc3ccccc32)cc1,"inconclusive: 35.5 µM [inhibitor, partial curve, poor fit]",–
CN(C)c1ccc(/C=N/Nc2ccc(F)cc2F)cc1,"inconclusive: 22.4 µM [inhibitor, single point]",–
COc1cc(OC)c2cc(C(=O)N[C@@H](C)C(=O)Nc3ccc4c(c3)OCCO4)n(C)c2c1,"inconclusive: 35.5 µM [inhibitor, single point]",–
COc1ccc(NC(=O)CSc2oc(-c3cccs3)nc2S(=O)(=O)c2ccccc2)c(OC)c1,"inconclusive: 14.1 µM [inhibitor, partial curve, poor fit]",–
CN1CCN(C(=O)CCC[C@@H]2[C@H]3CCCN4CCC[C@@H](CN2Cc2ccccc2)[C@@H]34)CC1,active: 31.6 µM,–
COc1cccc(CN2C[C@@H](CO)[C@H](NC(=O)C3CC3)C2)n1,"inconclusive: 11.2 µM [inhibitor, partial curve]",–
Cn1cnc(S(=O)(=O)N2CCCN(C3CCOCC3)CCNC(=O)CC2c2ccccc2)c1 (stereo unspecified),"inconclusive: 17.8 µM [inhibitor, partial curve, poor fit]",–
CCOC(=O)COc1ccc(CC)cc1C(=O)c1ccn2nc(-c3ccc(F)cc3)cc2n1,"inconclusive: 12.6 µM [inhibitor, partial curve, poor fit]",–
COc1ccccc1CC(=O)N(Cc1ccsc1)C1CC1,inactive,–
COc1ccc2cc(C(=O)N3CCN(Cc4ccccc4C)CC3)c(C)nc2c1,"inconclusive: 25.1 µM [inhibitor, partial curve, poor fit]",–
Nc1nonc1-n1nnc(C(=O)N/N=C/C=C/c2ccccc2)c1CSC1=NCCS1,"inconclusive: 39.8 µM [inhibitor, single point]",–
COc1cccc(-c2nc(C)c(C(=O)NCc3ccncc3)s2)c1,"inconclusive: 28.2 µM [inhibitor, partial curve, poor fit]",–
O=C(O)COCC(=O)N[C@H]1CCN2C(=O)c3cc(-c4ccsc4)ccc3NC(=O)[C@H]12,"inconclusive: 31.6 µM [inhibitor, partial curve, poor fit]",–
Cc1ccccc1CN1Cc2nc(-c3c(C)noc3C)ccc2OCC1=O,active: 35.5 µM,–

Compound,Potency,"activity change, negative = inhibition"
O=S(=O)(c1ccccc1Cl)N1CCN(C/C=C/c2ccccc2)CC1,inactive,–
Cc1nc(N(C)C)ncc1C(=O)NC(C(=O)O)c1c(C)n[nH]c1C (stereo unspecified),"inconclusive: 31.6 µM [inhibitor, partial curve, poor fit]",–
COc1ccccc1/C=C/c1nc(C#N)c(NC2CCCCC2)o1,"inconclusive: 35.5 µM [inhibitor, partial curve, poor fit]",–
COc1ccc2cc(COC(=O)C3COc4ccccc4O3)ccc2c1 (stereo unspecified),"inconclusive: 39.8 µM [inhibitor, single point]",–
Cc1nn(CN(Cc2ccccc2)CC(F)(F)F)c(=O)c2ccccc12,inactive,–
CSCC(=O)N[C@H]1CCN2C(=O)c3ccccc3NC(=O)[C@H]12,inactive,–
Cc1cnc(CCNC(=O)Cn2c(=O)oc3ccccc32)n1C1CCC1,inactive,–
Cc1ncoc1C(=O)N1CC[C@H]2C(=O)NCCCCCCN(Cc3ccncc3)[C@@H]2C1,"inconclusive: 25.1 µM [inhibitor, partial curve, poor fit]",–
COc1ccc(C(=O)NCc2ccc(-c3csc(C)n3)s2)cc1F,"inconclusive: 28.2 µM [inhibitor, partial curve, poor fit]",–
Cc1cccc(NC(=O)Nc2c[nH]c(=O)[nH]c2=O)c1C,"inconclusive: 14.1 µM [inhibitor, partial curve, poor fit]",–
CCC(C(=O)N1CCN(c2cc(C(F)(F)F)ncn2)CC1)c1ccccc1 (stereo unspecified),inactive,–
Cn1c(/C(C#N)=C/c2ccccc2Br)nc2ccccc21,"inconclusive: 25.1 µM [inhibitor, partial curve, poor fit]",–
O=C(NC(C1CC1)C1CC1)c1cc2ccccc2oc1=O,"inconclusive: 25.1 µM [inhibitor, single point]",–
CC1C(=O)N2CCCc3cc(S(=O)(=O)N4CCc5ccccc54)cc1c32 (stereo unspecified),inactive,–
Oc1ccc(C2(c3ccc(Br)cc3)CCCCC2)cc1,inactive,–
COc1ccc(-c2noc(-c3cccc(OCC(=O)N4CCN(c5ccccc5)CC4)c3)n2)cc1,inactive,–
Cc1sc(NC(=O)c2cc3ccccc3o2)c(C#N)c1C,inactive,–
Cc1noc(C)c1S(=O)(=O)N1CCCCCCn2c(nnc2-c2ccc(F)cc2)CC1,inactive,–
Cc1ccc(N2C(=O)N[C@@H]3CCN(C(=O)CC4(CC(=O)O)CCCC4)[C@@H]3C2=O)cc1,inactive,–
CCCOc1ccc(C(=O)Nc2ccc(NC(=O)c3cccs3)cc2)cc1,"inconclusive: 35.5 µM [inhibitor, single point]",–
Cn1c(=O)c2sccc2n2c(CCCC(=O)Nc3ccc(Oc4ccccc4)cc3)nnc12,"inconclusive: 2.24 µM [inhibitor, full curve, poor fit]",–
COc1ccc(C(C)=O)c(OC(=O)c2ccc(F)cc2F)c1,inactive,–

Compound,Potency,"activity change, negative = inhibition"
O=C(Nc1ccc(-c2ccco2)cc1)C1CCCN(Cc2ccc(CO)o2)C1 (stereo unspecified),"inconclusive: 28.2 µM [inhibitor, single point]",–
NC(=O)COC(=O)c1cc(-c2ccc(-c3ccccc3)cc2)nc2ccccc12,"inconclusive: 31.6 µM [inhibitor, partial curve, poor fit]",–
CCC1CN(Cc2cccc(C)n2)CCC(=O)N1Cc1ccccc1 (stereo unspecified),inactive,–
COc1ccc(N2CCN(S(=O)(=O)c3ccc4c(c3)C(C(C)C)C(=O)N4)CC2)cc1 (stereo unspecified),"inconclusive: 1 µM [inhibitor, partial curve, poor fit]",–
O=C(c1cccs1)N1CC[C@H](c2nnc(Cc3c[nH]c4ccccc34)o2)C1,"inconclusive: 31.6 µM [inhibitor, single point]",–
Cc1nc2cc(-c3cccc(F)c3)nn2c(C)c1CCC(=O)NCCc1ccccc1,"inconclusive: 22.4 µM [inhibitor, partial curve, poor fit]",–
Cc1ccc(CNC(=O)c2noc(-c3ccc4c(c3)OCO4)n2)cc1,active: 35.5 µM,–
Cc1ccc(Sc2ccc(Cl)nn2)cc1,inactive,–
CCCc1cc(=O)n2[nH]c(NCc3c(F)cccc3Cl)nc2n1,"inconclusive: 31.6 µM [inhibitor, single point]",–
CC(=O)Nc1ccc2nnc(-c3ccc(C(=O)N4CCCCCC4)cc3)n2c1,active: 14.1 µM,–
Cc1ccc2c(c1)-c1ccccc1C2=Nc1ccc2c(c1)Cc1ccccc1-2,"inconclusive: 39.8 µM [inhibitor, single point]",–
NC(=O)c1ccc(COC(=O)c2ccccc2-c2ccccc2)cc1,inactive,–
Cc1ccc(C)c(N2CCN(C(=O)c3cc(C)nc4c3c(C)nn4-c3ccccc3)CC2)c1,"inconclusive: 39.8 µM [inhibitor, single point]",–
COc1cc(CN(C(=O)COc2ccc(F)cc2)c2ccccn2)cc(OC)c1OC,–,inconclusive: -37.5% [inhibitor]
CSc1nc(=O)c2c(n1C)NC(=O)CC2c1ccc(C)cc1C (stereo unspecified),inactive,–
CN1CC(=O)N(C2CCCNC2)Cc2c(NCCCc3ccccc3)ncnc21 (stereo unspecified),"inconclusive: 50.1 µM [inhibitor, partial curve, poor fit]",–
Cc1ccccc1CCNC(=O)c1ccc(Cn2c(=O)c3cccn3c3cccnc32)cc1,"inconclusive: 10 µM [inhibitor, partial curve, poor fit]",–
CCCn1cc2c3c(cccc31)CN(C(=O)Cc1ccc(OC)cc1)CC2,"inconclusive: 28.2 µM [inhibitor, single point]",–
Cc1cc(C)c2nc(-c3ccc(C)c(C)c3)cc(C(=O)O)c2c1,"inconclusive: 14.1 µM [inhibitor, partial curve, poor fit]",–
CC(=O)Nc1ccc(C(=O)N2CCn3c(nnc3C3CCCN3)C2)cc1 (stereo unspecified),"inconclusive: 79.4 µM [inhibitor, partial curve, poor fit]",–
COCC1CCN(Cc2cc3cc4c(cc3nc2-c2ccc(Cl)cc2)OCO4)C1 (stereo unspecified),"inconclusive: 28.2 µM [inhibitor, partial curve, poor fit]",–
Cc1noc2c(NC3CCOCC3)cc(-c3ccccn3)nc12,"inconclusive: 35.5 µM [inhibitor, partial curve, poor fit]",–
